Results taken from PubChem BioAssay AID488969 (Vanderbilt High Throughput Screening Facility, 2010).
Over roughly 110,000 compounds, “z-score” has its median near -0.1; the highest 2% begin near 2. The list shows a part of the results.

Target: Metabotropic glutamate receptor 8 (Rattus norvegicus) (UniProt P70579)
Experiment: mGluR8 Gi/Go-coupled signaling modulation – cell-based, rat, thallium flux, HTS, primary screen (AID 488969)
Conditions: HEK293 rat mGluR8, GIRK (G protein-gated inwardly rectifying potassium channel) thallium flux, FluoZin2; at 10 µM; stronger effect = higher value; submaximal glutamate (EC20) added with thallium

Sequence of UniProt P70579 (P70579 whole entry, looked up): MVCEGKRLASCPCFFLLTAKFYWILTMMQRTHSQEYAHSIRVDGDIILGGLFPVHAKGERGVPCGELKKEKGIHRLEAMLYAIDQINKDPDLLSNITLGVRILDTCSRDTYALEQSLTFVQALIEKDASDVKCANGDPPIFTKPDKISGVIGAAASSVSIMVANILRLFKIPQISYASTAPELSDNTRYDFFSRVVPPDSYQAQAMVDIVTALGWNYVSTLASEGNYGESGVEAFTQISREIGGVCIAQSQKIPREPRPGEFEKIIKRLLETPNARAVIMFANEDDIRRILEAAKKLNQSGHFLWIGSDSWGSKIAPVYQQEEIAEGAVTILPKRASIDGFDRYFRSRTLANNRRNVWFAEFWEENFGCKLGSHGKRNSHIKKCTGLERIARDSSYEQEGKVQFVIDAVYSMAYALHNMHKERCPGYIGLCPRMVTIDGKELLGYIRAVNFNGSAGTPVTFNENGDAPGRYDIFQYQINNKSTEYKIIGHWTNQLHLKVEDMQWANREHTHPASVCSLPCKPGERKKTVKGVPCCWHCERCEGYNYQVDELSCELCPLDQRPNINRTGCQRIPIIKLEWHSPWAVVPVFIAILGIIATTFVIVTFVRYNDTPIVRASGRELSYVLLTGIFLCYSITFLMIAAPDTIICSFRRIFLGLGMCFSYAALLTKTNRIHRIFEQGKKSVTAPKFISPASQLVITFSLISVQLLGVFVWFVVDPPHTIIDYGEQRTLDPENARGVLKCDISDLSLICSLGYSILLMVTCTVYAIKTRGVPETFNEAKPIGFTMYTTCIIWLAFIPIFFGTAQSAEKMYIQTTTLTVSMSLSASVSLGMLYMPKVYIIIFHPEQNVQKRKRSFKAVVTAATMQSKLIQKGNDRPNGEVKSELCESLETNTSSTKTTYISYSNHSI

| Compound | z-score |
| --- | --- |
| Cc1cc(C)cc(-n2c(C)cc(C(=O)CSc3nnnn3C)c2C)c1 | -0.224 |
| CCN(CC)C(=O)c1cc(C(C)(C)C)c(O)c(C(C)(C)C)c1 | -0.449 |
| COc1cccc(C2CC(C(F)(F)F)n3ncc(C(=O)NC(C)(C)C)c3N2)c1 (stereo not given) | -0.184 |
| Cn1c(C(=O)OC(C(=O)NC2CCCC2)c2cccnc2)cc2sccc21 (stereo not given) | 0.234 |
| COc1ccc(OC)c(NC(=O)CCN2CC(C)OC(C)C2)c1 (stereo not given) | 0.46 |
| CCOc1cc(/C=N/NC(=O)COc2ccc(C)cc2)ccc1OC(=O)c1cccs1 | -0.0248 |
| CSc1nsc(SCC(=O)N2CCCc3ccccc32)n1 | -0.337 |
| CN1C(=O)SC(Nc2ccc(F)cc2)C1=O (stereo not given) | 0.185 |
| COc1ccc(S(=O)(=O)N2CCCCC2)cc1NC(=O)c1ccc2ccccc2n1 | -0.376 |
| O=C1NC(=O)C(=C2CCCCCC2)S1 | 0.367 |
| Cc1ccc(-c2nn(-c3ccccc3)cc2C2CC(c3cccs3)=NN2C(=O)CCCC(=O)O)cc1 (stereo not given) | -0.217 |
| Nc1nnnn1/N=C/c1ccc(O)cc1 | -0.442 |
| Cc1ccc(NC(=O)Cn2c(-c3ccc(F)cc3)cnc2SCC(=O)Nc2c(C)cccc2C)cc1 | -0.136 |
| FC(F)(F)c1nc(-c2ccncc2)ncc1-c1nnnn1-c1ccccc1 | -0.375 |
| CSc1cccc(NC(=O)C(C)NS(=O)(=O)c2ccc(F)cc2)c1 (stereo not given) | -0.405 |
| CCOC(=O)CSc1nc(C)c(C(C)=O)cc1C#N | 0.245 |
| Cc1[nH]c(=S)c(C#N)c(C)c1C(=O)Nc1ccccc1 | -0.121 |
| Cc1c(/C=N/NC(=O)CNc2ccccc2)c2ccccn2c1C(=O)c1ccccc1 | -0.111 |
| c1ccc(-n2c(-c3ccco3)nnc2-c2ccco2)cc1 | -0.236 |
| C#CCSc1nc(Cc2ccc(Cl)cc2)nc2ccccc12 | 0.192 |
| CCn1c(C)nc2cc(C(=O)NNS(=O)(=O)c3ccccc3F)ccc21 | -0.0906 |
| CC(C)NC(=O)NC(=O)CSc1ccccc1F | -0.389 |
| COc1ccc(Cn2c(=O)sc3ccccc32)cc1OC | 0.671 |
| O=C(COc1ccc(Cl)cc1)Nc1ccc(C(=O)NCc2cccnc2)cc1 | 0.0017 |
| COc1cccc(OC)c1C(=O)N1CCN(Cc2ccccc2C)CC1 | -0.301 |
| Cc1nc2ccc(F)cc2cc1C(=O)NCC1CCCO1 (stereo not given) | 0.0248 |
| CCOC(=O)c1[nH]c(C)c(C(=O)NCCC2=CCCCC2)c1C | 0.232 |
| O=c1oc2c(Cl)cc(Cl)cc2cc1-c1nnc(Nc2ccccc2F)s1 | 1.37 |

| Compound | z-score |
| --- | --- |
| O=C(O)c1cc([N+](=O)[O-])ccc1NCCO | -0.0386 |
| O=S(=O)(Cc1ccccc1)N1CCn2c(nc3ccccc32)C1 | -0.011 |
| COc1cc(S(=O)(=O)Nc2cccc(C)c2)ccc1NC(=O)c1cccnc1 | -0.162 |
| CC(=O)Nc1ccc(Cl)c(C(N)=O)c1 | 0.465 |
| COc1ccc(/C=N/OCC(=O)N2CC3(C)CC2CC(C)(C)C3)cc1OC (stereo not given) | -0.15 |
| CC(C)N(C(=O)C(=O)c1cccn1-c1ccccc1C#N)C(C)C | -0.388 |
| COc1ccc(C(N)=O)cc1NC(=O)CC(O)(C(F)(F)F)C(F)(F)F | 0.121 |
| Cc1onc(-c2c(F)cccc2Cl)c1C(=O)N1CCN(S(C)(=O)=O)CC1 | 0.0327 |
| CCCn1nnc(NC(=O)c2ccc(Br)o2)n1 | 0.168 |
| COc1cccc(OCC(O)CN2CCC(C)CC2)c1 (stereo not given) | 0.67 |
| CC1CCN(c2nc3c(c(=O)n(C)c(=O)n3C)n2Cc2ccccc2)CC1 | -0.782 |
| O=C(Cn1cnc2c(nnn2Cc2ccc(Cl)cc2)c1=O)N1CCCc2ccccc21 | 0.0655 |
| CC1CC(C)CN(C2CCN(Cc3cccnc3)CC2)C1 (stereo not given) | -0.0754 |
| CC1=CCC(C(=O)O)(C(=O)N/N=C/c2cccs2)C(c2ccc(Cl)cc2)C1 (stereo not given) | -0.83 |
| CN(C(=O)COc1ccc(C(C)(C)C)cc1)C1CCS(=O)(=O)C1 (stereo not given) | 0.162 |
| O=C(OCn1ncc(Cl)c(Cl)c1=O)c1ccccc1Cl | -1.56 |
| COc1cccc(NC(=O)c2nn(C34CC5CC(CC(C5)C3)C4)cc2[N+](=O)[O-])c1 | -0.196 |
| COCCNCCCOc1ccc(C(C)(C)c2ccccc2)cc1 | 0.645 |
| CCOc1cc(N2CCOCC2)c(OCC)cc1NC(C)C(=O)N1CCC(C)CC1 (stereo not given) | -0.233 |
| Cc1ccc(C)c(CSC2=NCCN2C(=O)Cc2ccc([N+](=O)[O-])cc2)c1 | 0.0861 |
| O=C(OCc1nc2ccccc2s1)c1cccs1 | 0.852 |
| CCC(=O)n1nc(-c2ccc(Cl)cc2)nc1SC | -0.569 |
| CCOC(=O)CSc1nc2cc(C(=O)N3CCC(C(N)=O)CC3)ccc2c(=O)n1-c1ccccc1 | 0.0521 |
| COc1ccc(OC)c(C2C(C(=O)c3cccs3)=C(O)C(=O)N2CCN(C)C)c1 (stereo not given) | -0.00245 |
| COc1cccc(CNC(=O)C2CCN(S(=O)(=O)c3c(C)nn(C)c3C)CC2)c1 | 0.519 |
| CN(C)c1cccc(C(=O)Nc2ccc3nc4n(c(=O)c3c2)CCCCC4)c1 | -0.303 |
| CCCCNC(=S)NNC(=O)c1csc(C)c1 | 1.2 |
